# According to PMC4242493:
# This is one part of the list. The list includes weakly bound sequences.
# Biological target: MaxL homodimer (UniProt P61244)
# Experiment: universal protein-binding microarray (PBM)
# Details: PBS-based mixture, 10 nM His-tagged protein dimer, 2% milk, 200 ng/uL BSA, 50 ng/uL salmon testes DNA, 0.02% TX-100; detection with Alexa 488 anti-His …; high values mean tight binding; most listed sequences are background and not binding sites; double strand, one strand shown
# Chain of UniProt P61244 (P61244 whole entry): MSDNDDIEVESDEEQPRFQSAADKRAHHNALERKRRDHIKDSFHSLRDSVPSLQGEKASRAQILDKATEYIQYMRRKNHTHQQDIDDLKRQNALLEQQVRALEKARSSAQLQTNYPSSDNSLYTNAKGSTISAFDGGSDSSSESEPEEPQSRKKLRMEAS
row,Sequence,binding signal (normalized occupancy)
1,AGCCCGCG,0.0664
2,GTTTAACA,0.0767
3,CAGCACAG,0.0777
4,GTACCAGA,0.0726
5,AAGGATTG,0.0755
6,AGCACAAG,0.0764
7,CCAGAGCC,0.0683
8,CGTAAGGC,0.0753
9,ATCCTTAG,0.0782
10,AAACATGA,0.0907
11,AATGCAGC,0.0741
12,TAATTTAA,0.0709
13,AATCAATC,0.0773
14,CCCAGACC,0.0702
15,ATTTTGCC,0.0766
16,TATGGACA,0.0795
17,GCTTATAA,0.0807
18,ATCCTGTA,0.0755
19,AGTAGTCC,0.0718
20,ACTACAAG,0.0738
21,GGTATATA,0.0866
22,ATCACTAA,0.0741
23,CATTCGCA,0.078
24,CAGTAATA,0.0775
25,ACAAGTGA,0.0764

row,Sequence,binding signal (normalized occupancy)
1,ATCTAGGA,0.0759
2,TTCCTCAA,0.0727
3,GGGTGGGA,0.085
4,AGGGCTAC,0.0722
5,GGTTGTCA,0.0781
6,ATCTCAAA,0.0786
7,CCGAAACG,0.0717
8,ACTCTGTA,0.0726
9,CACTAATG,0.0758
10,CAGCTGGA,0.0742
11,AGGCTTTA,0.0758
12,ATTATAGA,0.0796
13,AATCTTGG,0.076
14,AGCGTTGG,0.0764
15,CCACGATA,0.0924
16,CAACTGCA,0.0708
17,ACCACGTG,0.773
18,CGACGAAC,0.0697
19,CAAACTGG,0.0684
20,GAAATTGC,0.0727
21,ATATTAGG,0.0776
22,AGCGCACC,0.0767
23,GTTCGTGA,0.0731
24,ACAAGGGA,0.0765
25,AAATTGGG,0.0753

row,Sequence,binding signal (normalized occupancy)
1,GAATAATC,0.0788
2,AAAGCTTT,0.0728
3,AGACAATA,0.0786
4,TGGCCCAA,0.0666
5,GTTACCAA,0.0749
6,CTGCAACA,0.0801
7,AGCAGAAA,0.0744
8,ATCACTAC,0.0763
9,AAGCGAGT,0.0719
10,CGAGACGA,0.0694
11,AGGCGCAA,0.0697
12,GGTAAACC,0.0718
13,ACTCAATC,0.0799
14,ATGTTTGA,0.0849
15,GATCTCCC,0.0755
16,CCTGGCGC,0.0669
17,AGCAATAA,0.071
18,ACCGTGAT,0.0871
19,GATAGGCC,0.0744
20,ATCATCGC,0.0795
21,AACGAGTC,0.0781
22,AATACTGG,0.0767
23,CAATATTA,0.0746
24,CACAGAGA,0.0776
25,TAAGTGTA,0.0831

row,Sequence,binding signal (normalized occupancy)
1,CCAGCAGA,0.0768
2,CTTCATAA,0.0735
3,ACAATCGA,0.0713
4,CCTGTTTA,0.0713
5,ATACGACA,0.077
6,ATCGGCTA,0.0719
7,ACCAAAGC,0.0689
8,GATCTCGA,0.0734
9,GGCCTTCA,0.0697
10,ACTGAGAA,0.0662
11,AAAGGGGT,0.0753
12,TATTTTAA,0.0772
13,AAGCAACT,0.0694
14,AACAACCG,0.0774
15,ACGAACCG,0.0718
16,CCGGTGGC,0.0692
17,GAATAACA,0.0791
18,CGGCTCAG,0.065
19,AGTGCGAA,0.0743
20,CAGTACAC,0.082
21,GTAAGGGA,0.0762
22,ACGGTGTC,0.0703
23,ATGGGCTA,0.0792
24,TCATATCA,0.0849
25,ACCCCGAT,0.0826

row,Sequence,binding signal (normalized occupancy)
1,CAGATGGG,0.0837
2,GCGCGTGA,0.106
3,ACGAAGTG,0.0717
4,GGCCTGCA,0.0744
5,ATATCCTG,0.0815
6,AAATCATT,0.0728
7,CAGTTGAA,0.0762
8,AAGGGCAG,0.0755
9,ATGTCCGC,0.0798
10,CCAGATGC,0.0801
11,ACGTTACG,0.0758
12,ACCGGAAG,0.0719
13,GCTCGTCA,0.0699
14,GAGGCGCA,0.0721
15,GCGTGTTA,0.101
16,AGACGAAT,0.0711
17,TAATCCCA,0.0868
18,GCTAGGAC,0.0694
19,AAACTCGC,0.069
20,CGTAGGTA,0.0732
21,ACCAGCGG,0.0693
22,CCTGGGCA,0.0702
23,GGGGACAC,0.0719
24,CTCCTTAC,0.0772
25,AGGACATC,0.0719

row,Sequence,binding signal (normalized occupancy)
1,AGAGCTAA,0.0683
2,TGGCGTAA,0.0728
3,ATGGCTCA,0.0798
4,TCGGAAGA,0.0706
5,TCAAAAGA,0.0734
6,GTATATAC,0.0866
7,CTTGCGAC,0.0725
8,GCGTCAGC,0.0714
9,CTGAACAG,0.0682
10,AATACAGC,0.0751
11,CGAGGTAG,0.0739
12,CAGGACTG,0.0714
13,CATTGCTA,0.0798
14,AAACTTGG,0.0681
15,AGAGACGA,0.0734
16,TTGCAAAA,0.0751
17,AGAACGGA,0.0699
18,GTGGTCAA,0.0837
19,AGTCTAGG,0.0681
20,GATAGGTA,0.0782
21,CCTATGTC,0.0759
22,AGACGACC,0.0696
23,ATGAGATA,0.0762
24,GAATGATA,0.0847
25,ACAGCTAG,0.0715

row,Sequence,binding signal (normalized occupancy)
1,ATCACGCG,0.132
2,AAACGGTG,0.0723
3,AACGCTTC,0.0768
4,GACGTCGA,0.0676
5,CTATTCTA,0.0771
6,ACCGCGCC,0.0729
7,GGAACAAC,0.0718
8,ACTCAAAT,0.0797
9,CGTATAAC,0.0804
10,CGGGAGAG,0.0681
11,ATGGAGGA,0.0837
12,CCTAACAC,0.0797
13,AGATCCCT,0.0755
14,CGCGGTAG,0.0751
15,AATTACGG,0.0744
16,AGTGTGTA,0.0806
17,CGGTATGC,0.0782
18,GGATATAC,0.0812
19,ACAGCTGC,0.0723
20,AACAGTAT,0.0793
21,GATACCAA,0.078
22,GTATCAGA,0.0735
23,ACCACTAT,0.0819
24,ATTGGAAG,0.076
25,AATCGATC,0.0741

row,Sequence,binding signal (normalized occupancy)
1,GCACTGGC,0.071
2,AAAGCAAT,0.0711
3,ATGAGACC,0.0803
4,GGCACTCA,0.0801
5,AAGGGAGT,0.0731
6,CTTATGTC,0.0754
7,GCCGCGCC,0.0686
8,ACCATTAA,0.0795
9,CCGTAAAA,0.0707
10,AGCTCGCG,0.0671
11,ACGCGTGC,0.13
12,CCAGTACC,0.0725
13,CTTCCTCC,0.0697
14,AGTGTTCG,0.0757
15,TTAGGGAA,0.0754
16,ACGTGAGG,0.0969
17,AGTACAAC,0.0757
18,CAGGCGGG,0.0747
19,GAATCTCC,0.0703
20,GAACAGCA,0.0796
21,CGTACTAC,0.0793
22,GAGTCCGA,0.072
23,CTGCCCAC,0.0872
24,GATTTTGC,0.0747
25,GGCTGCGA,0.0661

row,Sequence,binding signal (normalized occupancy)
1,AGGTACTG,0.0722
2,TACTATGA,0.0744
3,CGGCGACC,0.0677
4,CTGACTGA,0.0702
5,AAGATGGG,0.0764
6,ACCTTGTA,0.0732
7,CCGTACGA,0.0732
8,GTACAAAA,0.0757
9,CACGGTCA,0.083
10,ATTTGAAC,0.0735
11,ACTCTGAG,0.0705
12,TGGGCCCA,0.0716
13,AAGAATAC,0.0745
14,CGCCCACG,0.0896
15,AGCACATG,0.187
16,AGTGTCCA,0.0709
17,CTAGAATC,0.0714
18,CACCAGGG,0.0776
19,CGGTGACA,0.0752
20,TACGAGTA,0.072
21,AGGTCCGG,0.0717
22,AGCTAATC,0.0706
23,CCCGCTCG,0.0756
24,ATACCTGG,0.0794
25,GCACAATA,0.08

row,Sequence,binding signal (normalized occupancy)
1,CCCCGTAG,0.0708
2,CCGCGGGC,0.0638
3,CAGCGACA,0.0785
4,CACACAGG,0.0787
5,CTTAATCC,0.0752
6,TTATGAAA,0.0765
7,ACTGCACC,0.0739
8,AGCGCCAT,0.0704
9,AGATCGTC,0.073
10,ATTTTGGC,0.0796
11,AAGAGCTG,0.0717
12,CCCTGGTC,0.0713
13,GCATAACC,0.0776
14,AGAGACAG,0.0718
15,CATTGAGA,0.0728
16,AGATTGTA,0.0752
17,GGAGCAGA,0.0682
18,AACGCATG,0.121
19,ACGAAGTC,0.071
20,ATAAGGCG,0.0737
21,TACTACGA,0.0764
22,TACGCGGA,0.0723
23,GGGTCACC,0.0752
24,AAAAGCGG,0.0667
25,CGAAGACG,0.0664

row,Sequence,binding signal (normalized occupancy)
1,CTTTGGAA,0.0702
2,AAATCCCG,0.0742
3,AGGGTAAG,0.0793
4,ACCGATGA,0.0782
5,GGTTAGGA,0.0774
6,GGCTCTGA,0.076
7,AGCGAAGC,0.0701
8,AGAGCCCC,0.0718
9,GAGGACCC,0.0739
10,CATCTGTC,0.0856
11,GGGATGAC,0.077
12,ATTCGACA,0.0756
13,CCGGGAAG,0.0675
14,AGTCTGAT,0.0755
15,ACGAAACA,0.0742
16,TAGACGAA,0.073
17,TACGAAAA,0.0738
18,CGGATCAC,0.0753
19,ATGCTGCG,0.0796
20,AAAAGCCT,0.0691
21,AAGGAGGT,0.074
22,TGCCGAAA,0.0752
23,CCGCCTAC,0.0701
24,CGTTCGGA,0.0719
25,AACAATGT,0.078

row,Sequence,binding signal (normalized occupancy)
1,CGTTGTAG,0.0747
2,CGCTGCCG,0.0741
3,ACCAGTGG,0.0717
4,ATCAAGAC,0.0759
5,CAAGTCAC,0.0795
6,CTATAGGC,0.0725
7,ATGGCCTA,0.0782
8,GGAGGGAA,0.0728
9,ATAATCAA,0.0771
10,ACTCTTCA,0.0747
11,AGGTATAC,0.0784
12,CCAGGGGC,0.0697
13,GACAAAGA,0.0792
14,GCTTGTCC,0.0786
15,AGTCTCAC,0.075
16,AATTTACC,0.0797
17,GTCGAATA,0.0747
18,ACTAATGC,0.0717
19,ATGATTAA,0.078
20,AATAGTAA,0.0776
21,ACATATGC,0.0976
22,AGTAGGAG,0.0726
23,CACACATC,0.0888
24,CCCTTACG,0.0713
25,CACCGACG,0.0725

row,Sequence,binding signal (normalized occupancy)
1,GAACACTC,0.0727
2,TAACTACA,0.0782
3,CCTGTTAG,0.0795
4,ATGCAGTA,0.0766
5,CAATTGTA,0.0769
6,AGGGGGTA,0.0831
7,ACTCCCCA,0.0815
8,CGCTACAA,0.0765
9,CCGTATCC,0.0707
10,GACCAAAC,0.0713
11,AAAGTGCT,0.072
12,AGCCATCC,0.0723
13,CCGCAGGC,0.0645
14,CCTCCAGG,0.0762
15,GTATGGGA,0.0804
16,TGGGGCAA,0.0763
17,CAAACGGC,0.066
18,AAAACTCC,0.0714
19,CGCATGGA,0.106
20,AATCATAA,0.0796
21,CAGTAGAA,0.0771
22,TACGTACA,0.0764
23,AGGTACAA,0.0777
24,GAGACCAC,0.0836
25,ATTGGAAC,0.076

row,Sequence,binding signal (normalized occupancy)
1,GAACTATC,0.0768
2,CATAACCA,0.0811
3,CTGTAGCC,0.0712
4,ATGAACTA,0.0803
5,CCGTGAGA,0.0755
6,CAGGCCTA,0.0722
7,AGGCGTCC,0.0714
8,ATTAGACA,0.0773
9,ATCGAATA,0.0828
10,CAAGATTG,0.0753
11,GGCCACAA,0.0751
12,AACCACGC,0.0983
13,CAACGAGG,0.0883
14,AGATACCC,0.085
15,CGAAATCG,0.0731
16,CACCGGTC,0.0698
17,AATCAGTC,0.075
18,GGCTATAA,0.0808
19,AGCATGAA,0.0874
